Assay results as given in paper PMC5892938.
The other results are listed elsewhere or left out. The exact form of the protein is not confirmed.

biological target: GST-SBP-ILF3 (Homo sapiens) (UniProt Q12906); test: targeted RNA Bind-n-Seq; details: RBNS binding buffer: 25 mM Tris pH 7.5, 150 mM KCl, 3 mM MgCl2, 0.1% Tween, 0.5 mg/mL BSA, 1 mM DTT; 27 nM protein, 750 pM RNA pool; temperature not stated; high values mean tight binding; sequences stand for … in GGGUAAAAGCGAGGUGAA…CGGGACAAGUAUUAUGGG

| Sequence | binding signal (log2 fold change) |
| --- | --- |
| UUUUUUUUUUGAGACGGAACCCGUCUCCUA [tttttgagapaired] | 0.368 |
| GUGUGGUGUGUUGGUCCCUAACACAUCACA [gtspaired] | -0.732 |
| UUUUUUUUUUGAGAGGGAUGCCCUUUCCAG [tttttgagapaired] | 0.361 |
| GGUUGGUGUGUUGGUCCCUAACACAUCGAC [gtspaired] | -0.581 |
| UUCCUCUCUCCUCCGGGGGAGGGGGGAGGA [ctspaired] | -0.132 |
| UUUUUUUUUUGAGAUCGGAACGAUCUUCUG [tttttgagapaired] | 0.406 |
| UUUUUUUUUUGAGACCGAGGCGGUCUCCUA [tttttgagapaired] | 0.435 |
| UUUUUUUUUUGAGAGGGCAGCCCUCUCCAG [tttttgagapaired] | 1.09 |
| UUUUUUUUUUGAGAACGUAUCGUUCUCCGG [tttttgagapaired] | 0.177 |
| UUUUUUUUUUGAGAUGGAUUCCGUCUCCUA [tttttgagapaired] | 0.0429 |
| GGUUGUUGUGUUGGAGCCUAACACAACGAC [gtspaired] | -0.65 |
| GUGUGGUGUGUUGGUGUCUAACACACCGCG [gtspaired] | -0.274 |
| UUUUUUUUUUGAGAGGGGGACCCUUUCCGG [tttttgagapaired] | 0.506 |
| UUUUUUUUUUGAGACGGUGACCGUUUCCGG [tttttgagapaired] | 0.656 |
| UUUUUUUUUUGAGACGGCUACCGUCUCCUA [tttttgagapaired] | 0.496 |
| UUUUUUUUUUGAGACGGCUACCGUCUUCUA [tttttgagapaired] | 0.448 |
| GUUGGUGGUGUUGGCCUCUAACACCAUCAA [gtspaired] | -0.671 |
| UUUUUUUUUUGAGAUGGGGGCCAUCUCCAG [tttttgagapaired] | 0.725 |
| UUUUUUUUUUGAGACUGUUGCAGUUUCCGG [tttttgagapaired] | 0.606 |
| UUUUUUUUUUGAGAUCGGACCGAUCUCCAG [tttttgagapaired] | 0.483 |
| UUUUUUUUUUGAGAUGGAAACCAUCUUCUG [tttttgagapaired] | 0.0544 |
| UUUUUUUUUUGAGACUGAAACAGUCUCCAG [tttttgagapaired] | 0.0395 |

| Sequence | binding signal (log2 fold change) |
| --- | --- |
| UUUUUUUUUUGAGAGCGGAACGCUCUCCAG [tttttgagapaired] | 0.429 |
| UUUUUUUUUUGAGACCGUCACGGUUUCCUA [tttttgagapaired] | 0.448 |
| GGUGGUGGUGUUGGCAUCUAACACCAUCGC [gtspaired] | -0.348 |
| UUUUUUUUUUGAGACUGAGACAGUUUCCAG [tttttgagapaired] | 0.42 |
| UUUUUUUUUUGAGAUGGCGGCCAUCUCCUA [tttttgagapaired] | 0.536 |
| UUUUUUUUUUGAGACGGAAUCCGUCUUCUA [tttttgagapaired] | 0.128 |
| UUUUUUUUUUGAGAUGGAGGCCAUUUCCAG [tttttgagapaired] | 0.556 |
| GUGUGUUGUGUUGGCACCUAACACAACGCA [gtspaired] | -0.314 |
| UUUUUUUUUUGAGAUCGGACCGAUCUCCUG [tttttgagapaired] | 0.601 |
| UUUUUUUUUUGAGAGUGUGGCAUUCUCCAG [tttttgagapaired] | 0.473 |
| UUUUUUUUUUGAGACGGCGUCCGUUUCCAG [tttttgagapaired] | 0.922 |
| GUGGUGUGUGUUGGUGCCUAACACAUACCG [gtspaired] | -0.352 |
| UUUUUUUUUUGAGACUGUUUCAGUCUCCAG [tttttgagapaired] | 0.166 |
| GUGUGUGGUGUUGGAGCCUAACACCGCGCG [gtspaired] | -0.573 |
| GGUGGUGGUGUUGGAACCUAACACCGCUAC [gtspaired] | -0.779 |
| UUUUUUUUUUGAGAUGGUGACCAUCUCCUA [tttttgagapaired] | 0.279 |
| UUUUUUUUUUGAGAUGGGAGCCAUCUCCUG [tttttgagapaired] | 0.426 |
| UUUUUUUUUUGAGAGCGAUACGCUCUCCGG [tttttgagapaired] | 0.0235 |
| UUUUUUUUUUGAGAGUGUGGCAUUCUUCUA [tttttgagapaired] | 0.442 |
| UUUUUUUUUUGAGAACGAUACGUUCUCCUA [tttttgagapaired] | -0.0565 |
| GUGUGUUGUGUUGGCAUCUAACACAGCACA [gtspaired] | -0.926 |
| UUUUUUUUUUGAGAAGGACUCCUUCUCCGG [tttttgagapaired] | -0.155 |

| Sequence | binding signal (log2 fold change) |
| --- | --- |
| GUGGUUGGUGUUGGAGCCUAACACCGACCG [gtspaired] | -0.572 |
| GUGGUGUGUGUUGGUCCCUAACACACAUCG [gtspaired] | -0.602 |
| GUGUGUGGUGUUGGAUUCUAACACCACGCG [gtspaired] | -0.501 |
| UUUUUUUUUUGAGAUCGACACGAUCUCCGG [tttttgagapaired] | 0.227 |
| GGUGUGUGUGUUGGCUUCUAACACAUACGC [gtspaired] | -0.853 |
| GUGGUGUGUGUUGGUAUCUAACACAUACUA [gtspaired] | -0.351 |
| UUUUUUUUUUGAGAUCGAUACGAUCUCCUA [tttttgagapaired] | 0.0919 |
| UUUUUUUUUUGAGACUGGGGCAGUCUCCUA [tttttgagapaired] | 0.582 |
| GGUGUUGGUGUUGGAAUCUAACACCAGCGC [gtspaired] | -0.665 |
| GUGGUUGGUGUUGGUAUCUAACACCGACUA [gtspaired] | -0.488 |
| UUUUUUUUUUGAGACCGACACGGUCUCCAG [tttttgagapaired] | 0.337 |
| GUGUGUGGUGUUGGCCUCUAACACCAUACA [gtspaired] | -0.518 |
| UUUUUUUUUUGAGACGGUUUCCGUCUCCGG [tttttgagapaired] | 0.305 |
| UUUUUUUUUUGAGACGGAAACCGUUUCCGG [tttttgagapaired] | 0.493 |
| UUUUUUUUUUGAGAUCGAAUCGAUCUCCUA [tttttgagapaired] | 0.0834 |
| UUUUUUUUUUGAGAGUGAAACACUCUCCUA [tttttgagapaired] | 0.0078 |
| UUUUUUUUUUGAGAUGGUUUCCAUCUUCUA [tttttgagapaired] | 0.028 |
| UUUUUUUUUUGAGAGGGGCCCCCUCUCCUG [tttttgagapaired] | 1.36 |
| UUUUUUUUUUGAGAAGGUAUCCUUCUCCUG [tttttgagapaired] | -0.0538 |
| GUUGGUGGUGUUGGCGCCUAACACCGCCAG [gtspaired] | -0.485 |
| UUUUUUUUUUGAGACCGGGCCGGUUUCCAG [tttttgagapaired] | 0.69 |
